This is an account of results in PubChem BioAssay AID1745853 (National Center for Advancing Translational Sciences (NCATS), 2022).

Several values for one entry are separate records, joined by “and”; a condition that tells them apart may be missing. Identical values can stand only once. Some of the results follow. Shown are side measurements of this screen, not its main read-out; they come without a call.

Holding throughout (test): Primary Screen for Target Class Profiling of Small Molecule Inhibitors of Methyltransferases
Assay [1] addresses Glycine N-methyltransferase (Homo sapiens) (UniProt Q14749). Conditions: purified enzyme, MTase-Glo SAH luminescence; measured here: GNMT inhibition; at 40 µM; stronger effect = lower value. A digest of the protocol:
(§1)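 Each enzyme was assayed with SAM and its substrate. SAH formation detected by MTase-Glo luminescence; single-point 40 uM screen[…].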

Assay [2] deals with Guanidinoacetate N-methyltransferase (Homo sapiens) (UniProt Q14353). To be noted: purified enzyme, MTase-Glo SAH luminescence; measured here: GAMT inhibition; at 40 µM; stronger effect = lower value. An outline of the steps: as §1
For assay [3], the target named is Histamine N-methyltransferase (Homo sapiens) (UniProt P50135). Conditions: purified enzyme, MTase-Glo SAH luminescence; measured here: HNMT inhibition; at 40 µM; stronger effect = lower value. An outline of the steps: as §1
The target of assay [4] is Nicotinamide N-methyltransferase (Homo sapiens) (UniProt P40261). To be noted: purified enzyme, MTase-Glo SAH luminescence; measured here: NNMT inhibition; at 40 µM; stronger effect = lower value. A digest of the protocol:
as §1

Assay [5] deals with Phenylethanolamine N-methyltransferase (Homo sapiens) (UniProt P11086). Conditions: purified enzyme, MTase-Glo SAH luminescence; measured here: PNMT inhibition; at 40 µM; stronger effect = lower value. A digest of the protocol:
as §1
% is set by controls: 0 for no effect and ±100 for the full control effect.

As for `COC(=O)c1cc2n(n1)CC(C)(C(=O)NC1CCCC1)N(c1ccc(C)c(C)c1)C2=O` (stereo not given), the activity change, negative = inhibition in assay [1] was -0.159%; in assay [2] it was 8.82%; in assay [3], 6.71%; in assay [4] it was -2.79%; in assay [5], -0.158%.
Taken in the same sequence, the figures for `Cc1cc2[nH]c(=O)[nH]c2cc1S(=O)(=O)NCc1ccccc1` were -3.96%, 4.49%, 1.5%, -1.91% and -6.44%.
Taken in the same sequence, the figures for `CC1CCC2(NC1)OC1C(=O)C3C4CCC5CC(O[C@@H]6O[C@H](CO)[C@@H](O)[C@H](O)[C@H]6O[C@@H]6O[C@@H](C)[C@H](O)[C@@H](O)[C@H]6O)CCC5(C)C4CCC3(C)C1C2C` (stereo not given in full) were 0%, -10.9%, -3.94%, -21.8% and -1.95%.
The corresponding values for `CCCN(CC1CCOC1)C(=O)Nc1ccc(Cl)cc1` (stereo not given) are -0.118%, 2.37%, 0.996%, -2.73% and -1.3%.
Regarding `CNC(=O)c1cc(-c2cnc(OC)nc2)cc2c1OCCN2Cc1cccnc1`, the activity change, negative = inhibition is -12.6% in assay [1]; -13.3% in assay [2]; -10.4% in assay [3]; -15.7% in assay [4]; -4.55% in assay [5].
Taken in the same sequence, the figures for `C=CC(=O)N1CCN(C(=O)CNc2cc(-c3ccccc3Cl)c(Cl)cc2OC)CC1` were -0.654%, 3.98%, 0.233%, -13.9% and 2.5%.
The corresponding values for `CC(C)c1c(NC(=O)Nc2ccc(Cl)cc2)c(=O)n(-c2ccccc2)n1C` are -0.456%, -5.86%, 0.823%, -19% and -4.24%.
`CN1C(=O)c2cc(C(=O)NCc3ccc4c(c3)OCO4)nn2CC1(C)C(=O)NC1CCCC1` (stereo not given): the activity change, negative = inhibition in assay [1] came to 3.65%; in assay [2], 0%; in assay [3] it was 1.41%; in assay [4], 3.85%; in assay [5], 0.104%.
The corresponding values for `COCCNC(=O)CCc1nnc2n(Cc3ccccc3Cl)c(=O)c3ccccc3n12` are -8.28%, 2.93%, 0.254%, 2.3% and -0.09%.
The corresponding values for `CCOc1ccc(CN2C(=O)c3ccc(-c4ccco4)n3CC2(C)C(=O)NC2CCC(C)CC2)cc1` (stereo not given) are -5.87%, 0%, 2.25%, -12.6% and -0.219%.
For the compound `COCCCNC(=O)C(C)(C)Oc1nn(Cc2cccnc2)c2ccc(COC)cc12`, the activity change, negative = inhibition was -0.31% in assay [1]; -0.433% in assay [2]; 2.3% in assay [3]; 0.758% in assay [4]; 2.31% in assay [5].
The corresponding values for `CC1c2cccn2CCN1C(=O)Nc1cccc(Cl)c1` (stereo not given) are -9.67%, 2.39%, -7.88%, -17.5% and -8.65%.
With `COCCn1c(C(=O)OC)c(NC(=O)CC(C)C)c2cc(NC(C)CCn3cccn3)cnc21` (stereo not given), the activity change, negative = inhibition in assay [1] is -1.39%; in assay [2] it was -2.58%; in assay [3], -0.691%; in assay [4], -4.93%; in assay [5] it was -2.02%.
The corresponding values for `CCCn1c(=O)c2cc(F)ccc2n2c(SCc3ccc(C)cc3)nnc12` are -4.76%, 0%, 6.03%, -6.86% and 4.3%.
The corresponding values for `CCCn1c(=O)c2ccc(C(=O)NCC(C)C)cc2n2c(=O)n(CC(=O)NC(C)(C)C)nc12` are 0.298%, 3.58%, -1.03%, 0.829% and 1.4%.
The corresponding values for `O=C(c1cccs1)N1CCC(N(C(=O)NCCc2ccccc2)C2CCOCC2)CC1` are -1.83%, -1.14%, -10.2%, -5.9% and -3.69%.
On to `CCCCN(CC)c1nc(C)nc2c1c(C)cn2-c1c(C)cc(C)cc1C`, for which the activity change, negative = inhibition is 3.13% and -1.45% in assay [1]; 12.2% and -9.4% in assay [2]; 10.9% and 13% in assay [3]; -3.9% and -21.6% in assay [4]; 1.78% and -4.5% in assay [5].
Turning to `CC(=O)N1CCC(N2C[C@@H]3C[C@H](C2)c2ccc(-c4ccccc4CN(C)C)c(=O)n2C3)CC1`, the activity change, negative = inhibition in assay [1] is -2.86%; in assay [2], -5.65%; in assay [3] it was -22.3%; in assay [4], -5.88%; in assay [5], -1.93%.
As to `CCOC(=O)c1cc2n(n1)CC(C)(C(=O)NC1CCC(C)CC1)N(c1cccc(OC)c1)C2=O` (stereo not given), the activity change, negative = inhibition in assay [1] turned out to be 3.54%; in assay [2], 0%; in assay [3], 3.83%; in assay [4], 5.75%; in assay [5], 0.328%.
Taken in the same sequence, the figures for `Cn1cccc1C(=O)NC1CCN(C(=O)N2CC3CC(C2)[C@H]2CCCC(=O)N2C3)CC1` (stereo not given in full) were -4.62%, -3.87%, -0.743%, -5.91% and 14.1%.
With `CCC(C)NC(=O)c1ccc2c(=O)n(C)c3nn(CC(=O)c4ccc(C)cc4C)c(=O)n3c2c1` (stereo not given), the activity change, negative = inhibition is 3.36% in assay [1]; 0.813% in assay [2]; 6.42% in assay [3]; -2.31% in assay [4]; 2.04% in assay [5].
The corresponding values for `CC1(C(=O)NC2CCCC2)Cn2c(c(-n3cccc3)c3ccccc32)C(=O)N1Cc1ccco1` (stereo not given) are 3.91%, 0%, -2.31%, -5.06% and 1.77%.
Taken in the same sequence, the figures for `CC(C)C1c2cccn2CCN1C(=O)Nc1ccc(Br)cc1F` (stereo not given) were 1.1%, 6.15%, -8.26%, -5.72% and -0.371%.
Taken in the same sequence, the figures for `CC(C)C1C(OC(=O)/C=C/c2ccccc2)CC2(C)OC2CCC2(C)OC2C1O` (stereo not given) were 0%, 4.07%, 3.85%, -10.4% and 3.25%.
Take `C=C(C(=O)OC)C1CCC2(C)C(O[C@@H]3O[C@H](CO)[C@@H](O)[C@H](O)[C@H]3O)CC(=O)C(C)C2C1O` (stereo not given in full): the activity change, negative = inhibition in assay [1] is 0%; in assay [2], 4.93%; in assay [3], 9.92%; in assay [4] it was -6.29%; in assay [5], -0.782%.
The corresponding values for `C=CCc1ccc(O[C@@H]2O[C@H](CO)[C@@H](O)[C@H](O)[C@H]2O)c(OC)c1` are 5.26%, 3.79%, 13%, -6.62% and 5.96%.
For the compound `CS(=O)(=O)NC1CCN(c2cc(C3CC(N)C3)nc(N)n2)CC1` (stereo not given), the activity change, negative = inhibition is -5.9% in assay [1]; -7.45% in assay [2]; -6.79% in assay [3]; -10.4% in assay [4]; -16.4% in assay [5].
The corresponding values for `C=CCc1cccc(C=NNC(=O)CN2CCN(Cc3ccccc3)CC2)c1O` are -1.88%, 3.77%, -10.7%, -12.9% and -2.44%.
Regarding `CN(CC(=O)N1CCOCC1)S(=O)(=O)c1ccc2c(c1)CCCC(=O)N2`, the activity change, negative = inhibition came out at 9.52% in assay [1]; 0.728% in assay [2]; 9.61% in assay [3]; 11.1% in assay [4]; 9.44% in assay [5].
